# From PubChem BioAssay AID1460 (National Center for Advancing Translational Sciences (NCATS), 2008)
# The whole screen tested about 270,000 compounds, of which about 5,800 (2.1%) were called active. Inconclusive means that the source gave no clear call. Such entries were picked first, then a sample of the others. Calls follow the shape of the dose curve; as a rule, active = well fitted inhibition curve with a large enough effect; inconclusive = small, poorly fitted or top-dose-only effect; inactive = flat fitted curve, though single readings scatter. A potency beside an inconclusive call is a rough fit, not a confirmed value.
# Target: Microtubule-associated protein tau (Homo sapiens) (UniProt P10636)
# Sequence of UniProt P10636 (P10636 whole entry, looked up): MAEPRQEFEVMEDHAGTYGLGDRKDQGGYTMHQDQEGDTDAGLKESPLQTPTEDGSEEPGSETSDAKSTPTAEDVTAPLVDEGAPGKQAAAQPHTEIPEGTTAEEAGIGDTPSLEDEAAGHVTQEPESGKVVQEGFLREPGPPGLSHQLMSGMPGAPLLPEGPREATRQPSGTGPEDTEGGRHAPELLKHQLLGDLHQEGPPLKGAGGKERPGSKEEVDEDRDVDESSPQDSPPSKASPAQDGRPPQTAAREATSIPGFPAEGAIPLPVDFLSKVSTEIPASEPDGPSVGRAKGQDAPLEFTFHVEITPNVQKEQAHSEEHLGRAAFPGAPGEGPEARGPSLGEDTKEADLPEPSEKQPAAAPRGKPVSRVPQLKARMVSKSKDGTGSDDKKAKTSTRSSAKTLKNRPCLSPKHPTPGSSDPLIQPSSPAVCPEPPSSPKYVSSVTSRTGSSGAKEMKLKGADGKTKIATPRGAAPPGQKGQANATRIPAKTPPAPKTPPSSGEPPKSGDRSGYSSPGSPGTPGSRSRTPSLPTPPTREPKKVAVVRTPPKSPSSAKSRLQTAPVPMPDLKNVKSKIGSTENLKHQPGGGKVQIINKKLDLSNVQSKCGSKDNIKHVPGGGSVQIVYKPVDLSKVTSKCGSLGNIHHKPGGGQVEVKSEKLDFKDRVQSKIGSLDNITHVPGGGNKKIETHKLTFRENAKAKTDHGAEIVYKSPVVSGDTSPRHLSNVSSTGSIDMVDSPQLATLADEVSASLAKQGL
# Test: qHTS for Inhibitors of Tau Fibril Formation, Thioflavin T Binding; also: nearly all actives have a fitted effect of over 55% in size
# Details: recombinant tau K18 P301L, heparin-induced fibrillization, ThT fluorescence; series mostly up to 57.4 µM
# In short: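 Fibril formation assay: tau K18 P301L at 15 uM with trace Alexa 594 label, heparin inducer 20 uM, pH 7 sodium acetate buffer, 37 C for 6 hr; endpoint ThT signal.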
# Potency is read from the fitted curve at half-maximal effect; tags tell the direction and shape of the fitted curve.
row,SMILES,Potency
1,O=C1CC(c2ccc3c(c2)OCO3)Sc2nc3ccccc3n21 (stereo not drawn),"inconclusive: 22.4 µM [inhibitor, single point]"
2,Nn1c(SCCOc2ccc(Cl)cc2)nnc1-c1cccnc1,"inconclusive: 2 µM [inhibitor, full curve]"
3,CC(CC(=O)Nc1ncc([N+](=O)[O-])s1)c1ccccc1 (stereo not drawn),"inconclusive: 28.2 µM [inhibitor, single point]"
4,COc1ccc(NC(=S)NNC(=S)Nc2cccc(C(F)(F)F)c2)cc1,"inconclusive: 12.6 µM [inhibitor, partial curve]"
5,CN(C(=O)CSc1nnc(Cc2cccc3ccccc23)n1N)C1CCS(=O)(=O)C1 (stereo not drawn),"inconclusive: 39.8 µM [inhibitor, single point]"
6,CCN(C(=O)C1CCCN(S(=O)(=O)c2c(C)noc2/C=C/N(C)C)C1)c1cccc(C)c1 (stereo not drawn),"inconclusive: 15.8 µM [inhibitor, partial curve]"
7,COc1ccc(OC)c(-c2csc3nnc(SCC(=O)Nc4ccc(NC(C)=O)cc4)n23)c1,"inconclusive: 5.01 µM [inhibitor, full curve, poor fit]"
8,CCOC(=O)c1ccc(NC(=O)CC2C(=O)OCCN2CC)cc1 (stereo not drawn),"inconclusive: 11.2 µM [inhibitor, partial curve, poor fit]"
9,Cc1ccc(NC(=O)Nc2ccc3snnc3c2)cc1C,inactive
10,CCc1nnc(SC(CC)C(=O)Nc2cccc(OC)c2)c2cc3oc(C)cc3n12 (stereo not drawn),"inconclusive: 11.2 µM [inhibitor, partial curve]"
11,Cc1ccc2nc(/C(C#N)=C\c3ccc(N4CCCCC4)c([N+](=O)[O-])c3)[nH]c2c1,active: 3.16 µM
12,C=CCCCCCCCCCCC/C=C/C(O)COC(C)=O (stereo not drawn),"inconclusive: 12.6 µM [inhibitor, partial curve, poor fit]"
13,Nc1ccc2c(c1)-c1ccccc1S(=O)(=O)N2,"inconclusive: 28.2 µM [inhibitor, partial curve]"
14,CC1=C(C(=O)Nc2ccccc2C(F)(F)F)C(c2sccc2C)NC(=S)N1 (stereo not drawn),inactive
15,CCc1ccc(CN(Cc2ccco2)c2cnc(S(C)(=O)=O)nc2C(=O)Nc2ccccc2Cl)cc1,inactive
16,CCN(CC)C(=O)C1CCCN(C(=O)Nc2ccc3nsnc3c2)C1 (stereo not drawn),active: 14.1 µM
17,O=C(O)/C=C\C(=O)NNC(=O)c1cc(-c2ccccc2)n[nH]1,"inconclusive: 11.2 µM [inhibitor, partial curve]"
18,COC(=O)c1sc2nc3c(cc2c1N)CCCC3,"inconclusive: 7.94 µM [inhibitor, full curve]"
19,COc1cccc(NC(=O)c2ccc(-c3ccc([N+](=O)[O-])cc3)o2)c1,"inconclusive: 0.891 µM [inhibitor, full curve]"
20,O=C(NC(=O)N1CCN(c2ccc(F)cc2)CC1)c1ccccc1,inactive
21,N#Cc1cc([N+](=O)[O-])ccc1NC(=O)COC(=O)CC1CCCC1,"inconclusive: 28.2 µM [inhibitor, single point]"
22,CCOC(=O)C1CCCN(c2nc3ccccc3nc2C(C#N)C(=O)OC(C)C)C1 (stereo not drawn),"inconclusive: 12.6 µM [inhibitor, partial curve, poor fit]"

row,SMILES,Potency
1,COc1cccc(CN(C(=O)Cc2c[nH]c3ccccc23)C(C(=O)NC2CCCCC2)c2ccc(C)o2)c1 (stereo not drawn),inactive
2,O=[N+]([O-])c1ccc2c(c1Nc1ccccc1Cl)=NC1(CCCCC1)N=2,inactive
3,Fc1ccccc1N1CCN(C(c2ccccn2)c2nnnn2C2CCCCC2)CC1 (stereo not drawn),inactive
4,COc1cccc2cc(C(=O)N3CCC(C)CC3)c(=O)oc12,inactive
5,O=C(CNC(=O)/C=C/c1ccccc1)N=Nc1c(O)n(Cc2ccccc2)c2ccccc12,"inconclusive: 10 µM [inhibitor, partial curve]"
6,CCOc1ccc(CNC(=O)c2ccc(NC(=O)N3CCCCc4ccccc43)cc2)cc1,"inconclusive: 8.91 µM [inhibitor, single point]"
7,Cc1c(NC(=O)Cc2ccc(Cl)cc2)cccc1-c1nc2cccnc2s1,"inconclusive: 6.31 µM [inhibitor, partial curve]"
8,CC(C)Oc1ccc(Cn2c(-c3ccco3)n[nH]c2=S)cc1,"inconclusive: 14.1 µM [inhibitor, partial curve]"
9,Cc1cccc(OC(=O)CSc2nnc(-c3cccs3)o2)c1C,inactive
10,Cn1c(=O)cc(OCCCC(=O)N2CCN(c3ccccc3)CC2)c2ccccc21,"inconclusive: 10 µM [inhibitor, partial curve]"
11,COc1ccc(-c2noc(N3CCC(C(=O)N4CCN(c5cccc(OC)c5)CC4)CC3)n2)cc1,"inconclusive: 10 µM [inhibitor, partial curve, poor fit]"
12,COC(=O)c1[nH]c2ccc(C)cc2c1NC(=O)CN1CCN(Cc2ccccc2)CC1,"inconclusive: 17.8 µM [inhibitor, partial curve]"
13,O=C(CSc1ccc2ccccc2c1)NCCc1ccc(O)c(O)c1,"inconclusive: 5.01 µM [inhibitor, partial curve]"
14,Fc1cccc(CN2CCc3nc(Nc4ccc5c(c4)OCCO5)ncc3C2)c1F,"inconclusive: 14.1 µM [inhibitor, partial curve]"
15,COc1ccc(-c2csc3ncnc(Nc4ccccc4)c23)cc1,"inconclusive: 25.1 µM [inhibitor, single point]"
16,Cc1ccc(CSC2=NC(C)(C)Nc3ccccc32)c(C)c1,"inconclusive: 25.1 µM [inhibitor, single point]"
17,CCNc1nc2c(c(=O)n(C)c(=O)n2C)n1Cc1ccc(F)cc1,inactive
18,Nc1nc(Sc2ccc(C(F)(F)F)cc2[N+](=O)[O-])n[nH]1,inactive
19,CCOc1ccc(N/C(N)=N/c2nc(CSc3nnc(C)s3)cc(=O)[nH]2)cc1,"inconclusive: 1.78 µM [inhibitor, full curve, poor fit]"
20,O=C(N/N=C\c1ccc(Oc2ccccc2)cc1)c1csnn1,"inconclusive: 10 µM [inhibitor, partial curve, poor fit]"
21,CC(=O)N1CCN(c2csc3ccc(Cl)cc3c2=O)CC1,"inconclusive: 12.6 µM [inhibitor, partial curve]"
